The whole screen tested about 350,000 compounds, of which about 31,000 (8.9%) were called active. The shares of active, inactive and inconclusive entries below differ from those in the screen. Calls come from the whole dose curve; as a rule, active = well fitted inhibition curve with a large enough effect; inconclusive = small, poorly fitted or top-dose-only effect; inactive = no such curve, though single readings can be large or run the other way. A potency beside an inconclusive call is a rough fit, not a confirmed value.
target: Histone-lysine N-methyltransferase EHMT2 (Homo sapiens) (UniProt Q96KQ7); test: qHTS Assay for Inhibitors of Histone Lysine Methyltransferase G9a; details: G9a H3K9 monomethylation, AlphaScreen, 2 h; activity, negative = inhibition: at 59 µM (top of the series) unless noted; note: nearly all actives have a fitted effect of over 75% in size
Chain of UniProt Q96KQ7 (Q96KQ7 whole entry, looked up): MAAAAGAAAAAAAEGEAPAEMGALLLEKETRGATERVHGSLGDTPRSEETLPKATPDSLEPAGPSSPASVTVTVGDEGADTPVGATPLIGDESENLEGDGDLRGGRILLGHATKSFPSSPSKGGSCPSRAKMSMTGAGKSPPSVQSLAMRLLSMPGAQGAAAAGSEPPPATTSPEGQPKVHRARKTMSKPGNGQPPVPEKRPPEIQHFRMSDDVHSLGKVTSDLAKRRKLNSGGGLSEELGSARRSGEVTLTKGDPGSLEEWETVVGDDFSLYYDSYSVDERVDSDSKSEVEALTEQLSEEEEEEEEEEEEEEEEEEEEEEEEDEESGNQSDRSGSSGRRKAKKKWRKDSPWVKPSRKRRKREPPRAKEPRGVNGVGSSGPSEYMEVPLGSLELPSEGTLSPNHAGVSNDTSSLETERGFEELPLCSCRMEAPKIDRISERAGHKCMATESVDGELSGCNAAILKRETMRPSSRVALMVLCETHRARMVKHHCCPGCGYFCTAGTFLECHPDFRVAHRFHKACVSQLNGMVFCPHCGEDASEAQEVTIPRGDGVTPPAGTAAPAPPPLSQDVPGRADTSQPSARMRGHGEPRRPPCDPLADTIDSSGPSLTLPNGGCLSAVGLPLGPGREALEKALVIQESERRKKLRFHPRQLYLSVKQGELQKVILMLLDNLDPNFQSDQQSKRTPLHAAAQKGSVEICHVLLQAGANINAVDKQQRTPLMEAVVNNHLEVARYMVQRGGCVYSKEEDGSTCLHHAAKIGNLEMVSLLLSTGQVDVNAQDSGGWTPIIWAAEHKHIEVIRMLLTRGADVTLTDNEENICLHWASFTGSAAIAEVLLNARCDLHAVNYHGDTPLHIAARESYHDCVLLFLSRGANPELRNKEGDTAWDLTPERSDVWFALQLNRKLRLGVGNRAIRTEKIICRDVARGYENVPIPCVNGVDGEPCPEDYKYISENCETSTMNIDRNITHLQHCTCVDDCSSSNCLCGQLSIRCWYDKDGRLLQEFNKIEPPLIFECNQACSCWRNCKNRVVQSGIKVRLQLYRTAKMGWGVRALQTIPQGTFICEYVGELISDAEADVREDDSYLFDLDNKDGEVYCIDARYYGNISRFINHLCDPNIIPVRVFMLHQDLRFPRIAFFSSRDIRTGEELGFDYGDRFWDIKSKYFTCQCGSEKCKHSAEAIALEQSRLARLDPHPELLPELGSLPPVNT
How it was run: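 Methyltransferase reactions run at room temperature for 2 h (20 nM enzyme, 500 nM biotin-H3K9 peptide, 20 uM SAM) after a 15 min compound preincubation; product detected by AlphaScreen beads and anti-H3K9me1 antibody.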
% is set by controls: 0 for no effect and ±100 for the full control effect; potency is the fitted concentration of half-maximal effect; tags give direction and shape of the fitted curve.

Structure (SMILES)	Potency	activity, negative = inhibition
CCN(CC)CCn1c(=N)n(CC(O)c2ccco2)c2ccccc21 (stereo not given)	inconclusive: 44.7 µM [inhibitor, partial curve, poor fit]	–
CCS(=O)(=O)N1Cc2ccccc2CC1C(=O)NCC12CC3CC(CC(C3)C1)C2 (stereo not given)	–	inactive: -29.2% [at 12.7 µM]
Cc1nn(-c2ccccc2)c(Cl)c1/C=C1\C(=O)N(C)C(=S)N1C	inconclusive: 39.8 µM [inhibitor, partial curve]	–
O=C(c1ccc2c(=O)n(Cc3ccccc3)c(=S)[nH]c2c1)N1CCCC1	inconclusive: 89.1 µM [inhibitor, single point]	–
COc1cc(C2NC(=O)NC(C)=C2C(=O)OC2CCCCC2)cc(Cl)c1O (stereo not given)	inactive	–
CS(=O)(=O)c1ccc(Cl)c(NC(=O)CCNC(=O)c2ccco2)c1	inconclusive: 39.8 µM [inhibitor, partial curve, poor fit]	–
COCc1cc(=O)[nH]c(/N=C(\N)Nc2ccc(C)cc2)n1	inconclusive: 11.2 µM [inhibitor, single point]	–
O=c1[nH]c2ccc(NCc3ccc(-c4ccc(F)cc4)o3)cc2[nH]1	inactive	–
O=C(CSc1nc2ccccc2[nH]1)NCc1ccc(F)cc1	inconclusive: 50.1 µM [inhibitor, partial curve]	–
COc1ccc(/C=C/C(=O)Nc2ccc3nc4c(c(Nc5ccc(OC)c(OC)c5)c3c2)CCCC4)cc1	active: 8.91 µM	–
COc1cccc(/C=C/C2=CC(C)(C)NC(=S)N2)c1	active: 31.6 µM	–
Cc1ccn2c(=O)nc(SCC(=O)c3ccccc3)nc2c1	inconclusive: 44.7 µM [inhibitor, partial curve]	–
CCNS(=O)(=O)c1ccc(OCCNS(C)(=O)=O)cc1	inactive	–
CC(=O)c1cccc(S(=O)(=O)NC2CCCCCC2)c1	inconclusive: 25.1 µM [inhibitor, single point]	–
CCc1nnc(SCC(=O)Nc2cccc(C(F)(F)F)c2)c2cc3oc(C)cc3n12	inactive	–
COc1ccc(Nc2nc(NCc3ccco3)nc(N3CCOCC3)n2)cc1	–	inconclusive: -74.8% [inhibitor]
CC(C)CN1CCN(Cc2cccc3cccnc23)CC1CCO (stereo not given)	inactive	–
S=C(Nc1ccccc1)N(Cc1ccccc1)Cc1ccncc1	inactive	–
CCC(=O)N1CCN(c2ccccc2NC(=S)NC(=O)c2ccco2)CC1	inconclusive: 7.94 µM [inhibitor, partial curve, poor fit]	–
COc1ccc(CCNC(=O)CCS(=O)(=O)c2cc3c(cc2Cl)NC(=O)CO3)cc1OC	inconclusive: 0.794 µM [inhibitor, partial curve, poor fit]	–
